The list shows a part of the results.
Columns and labels:
HSkMC = human skeletal muscle cells; assay: cytotoxicity call (relative viability < 0.9); conditions: 10 µM
HepG2 = assay: cytotoxicity call (relative viability < 0.9); conditions: 10 µM
S. aureus RN4220 = assay: growth inhibition call (relative growth <= 0.2); conditions: 50 µM

SMILES	cytotoxicity call (HSkMC)	cytotoxicity call (HepG2)	growth inhibition call (S. aureus RN4220)
C[C@@H]1CN([C@@H](C)CO)C(=O)c2cc(NC(=O)CCC(F)(F)F)ccc2O[C@H]1CN(C)S(C)(=O)=O	inactive	inactive	inactive
C[C@H]1CN([C@@H](C)CO)C(=O)Cc2cc(NC(=O)c3ccncc3)ccc2O[C@@H]1CN(C)S(=O)(=O)c1cn(C)cn1	inactive	inactive	inactive
CCO[C@H]1OC(C(=O)N2CCN(Cc3ccccc3)CC2)=C[C@@H](c2csc3ccccc23)[C@@H]1CCCOC(=O)NCCCCCC(=O)NO	inactive	inactive	inactive
N=C(NO)c1cccc(C(=N)NO)n1	inactive	inactive	inactive
C[C@@H]1CCCCO[C@@H](CN(C)Cc2ccc(C(=O)Nc3ccccc3N)cc2)[C@@H](C)CN([C@H](C)CO)C(=O)c2cc(NS(=O)(=O)c3ccccc3)ccc2O1	inactive	inactive	inactive
COc1oc(C(=O)NC2CCCCC2)c(-c2ccc(Cl)cc2)c1S(=O)(=O)c1ccc(Br)cc1	inactive	inactive	inactive
Cc1c2occ(C(C)(C)C)c2cc2c3c(c(=O)oc12)CCCC3	inactive	inactive	inactive
COCCOC(=O)C1=C(C)NC(C)=C(C(=O)OCC=Cc2ccccc2)C1c1cccc([N+](=O)[O-])c1 (stereo not drawn)	inactive	active	inactive
COc1ccc(NC(=O)Nc2ccc3c(c2)C(=O)N([C@@H](C)CO)C[C@@H](C)[C@@H](CN(C)S(=O)(=O)c2ccccc2)OCCCC[C@H](C)O3)cc1	inactive	inactive	inactive
CNC[C@@H]1Oc2ccc(NC(=O)CCN3CCOCC3)cc2CC(=O)N([C@@H](C)CO)C[C@H]1C	inactive	inactive	inactive
C[C@H]1CN([C@@H](C)CO)S(=O)(=O)c2ccc(C#Cc3ccncc3)cc2O[C@@H]1CN(C)C(=O)C1CCOCC1	inactive	active	inactive
C[C@@H]1CN([C@H](C)CO)C(=O)c2cc(NC(=O)Cc3ccccc3)ccc2O[C@H]1CN(C)C(=O)Nc1cccc2ccccc12	inactive	inactive	inactive
COc1ccc(NC(=O)Nc2ccc3c(c2)C(=O)N([C@@H](C)CO)C[C@@H](C)[C@H](CN(C)C(=O)c2ccccc2)OCCCC[C@@H](C)O3)cc1	inactive	inactive	inactive
C[C@@H]1CCCCO[C@@H](CN(C)C(=O)Nc2ccc(C(F)(F)F)cc2)[C@@H](C)CN([C@@H](C)CO)C(=O)c2cc(N(C)C)ccc2O1	inactive	inactive	inactive
O=C(N[C@H]1CC[C@@H](CCn2cc(C3(O)CCCC3)nn2)O[C@@H]1CO)C1CCOCC1	inactive	inactive	inactive
COc1cc(C)c(C(=O)O)c(OC(C)=O)c1	inactive	inactive	inactive
O=C(C[C@H]1CC[C@H]2[C@@H](COC[C@H](O)CN2S(=O)(=O)c2ccc(F)cc2)O1)N[C@@H]1CCN(Cc2ccccc2)C1	inactive	inactive	inactive
CC(C)NC(=O)N(C)C[C@@H]1Oc2ccc(NC(=O)CCN3CCOCC3)cc2C(=O)N([C@@H](C)CO)C[C@H]1C	inactive	inactive	inactive

SMILES	cytotoxicity call (HSkMC)	cytotoxicity call (HepG2)	growth inhibition call (S. aureus RN4220)
C[C@H]1CN([C@@H](C)CO)C(=O)Cc2cc(NC(=O)Nc3ccc(F)cc3)ccc2O[C@H]1CN(C)S(=O)(=O)c1cn(C)cn1	inactive	inactive	inactive
C[C@@H]1CCCCO[C@H](CN(C)CC2CCCCC2)[C@H](C)CN([C@H](C)CO)C(=O)c2cc(NC(=O)Nc3cccc4ccccc34)ccc2O1	active	active	inactive
COc1ccc(S(=O)(=O)Nc2ccc3c(c2)C(=O)N([C@@H](C)CO)C[C@H](C)[C@@H](CN(C)C(=O)Nc2ccc4c(c2)OCO4)OCCCC[C@H](C)O3)cc1	inactive	inactive	inactive
C[C@H](CO)N1C[C@H](C)[C@@H](CN(C)Cc2ccc(C(=O)Nc3ccccc3N)cc2)Oc2ccc(NC(=O)Cn3cnnn3)cc2CC1=O	inactive	inactive	inactive
COC(=O)C[C@@H]1CC[C@@H]2[C@H](COc3ccc(NS(=O)(=O)c4ccccc4Cl)cc3C(=O)N2C)O1	inactive	inactive	inactive
C[C@H](CO)N1C[C@H](C)[C@@H](CN(C)C(=O)Nc2cccc3ccccc23)Oc2ccc(NC(=O)Nc3ccc(C(F)(F)F)cc3)cc2CC1=O	inactive	inactive	inactive
COc1ccccc1CNC(=O)C[C@H]1C[C@H]2c3cc(NC(=O)c4cccnc4)ccc3O[C@H]2[C@@H](CO)O1	inactive	inactive	inactive
Cc1noc(C)c1S(=O)(=O)N(C)C[C@H]1Oc2c(NS(=O)(=O)c3cn(C)cn3)cccc2C(=O)N([C@H](C)CO)C[C@H]1C	inactive	inactive	inactive
COc1cccc(S(=O)(=O)N(C)C[C@H]2Oc3ncc(-c4cccc(C(=O)N(C)C)c4)cc3C(=O)N([C@H](C)CO)C[C@@H]2C)c1	inactive	inactive	inactive
C[C@H](CO)N1C[C@H](C)[C@H](CN(C)S(=O)(=O)c2ccc(Cl)cc2)Oc2ccc(NC(=O)Nc3ccc(C(F)(F)F)cc3)cc2C1=O	active	active	inactive
CC(C)NC(=O)Nc1ccc2c(c1)C(=O)N([C@@H](C)CO)C[C@H](C)[C@H](CN(C)C(=O)C1CCCCC1)OCCCC[C@H](C)O2	inactive	inactive	inactive
Cc1noc(C)c1S(=O)(=O)Nc1ccc2c(c1)C(=O)N([C@@H](C)CO)C[C@@H](C)[C@H](CN(C)C(=O)NC(C)C)O2	inactive	inactive	inactive
Cc1ccc(S(=O)(=O)N(C)C[C@H]2Oc3c(NC(=O)C4CC4)cccc3C(=O)N([C@H](C)CO)C[C@@H]2C)cc1	inactive	inactive	inactive
COc1ccc2c3c(n(c2c1)C)[C@@H](CO)N(Cc1cc(cc(c1)OC)OC)C[C@]13CN(C1)C(=O)NC(C)C	inactive	inactive	inactive
C[C@H](CO)N1C[C@H](C)[C@@H](CN(C)Cc2ccc(C(F)(F)F)cc2)Oc2c(NC(=O)c3ccc(-c4nccs4)cc3)cccc2C1=O	inactive	inactive	inactive
COc1ccc(NC(=O)N(C)C[C@H]2Oc3ccc(NS(=O)(=O)c4c(C)noc4C)cc3C(=O)N([C@@H](C)CO)C[C@H]2C)cc1	inactive	inactive	inactive
CN(C)CCCNC(=O)C[C@H]1CC[C@H](NS(=O)(=O)c2ccccc2)[C@@H](CO)O1	inactive	inactive	inactive
CC[C@@H](Nc1n[nH]c(=O)[nH]c1=O)C(=O)OC	inactive	inactive	inactive
